# Measurements as given in paper PMC4336329 (PLoS ONE, 2015).
# The campaign covered roughly 310,000 compounds. About 14,000 (4.5%) showed an effect of 50% or more. The effect is printed as a negative number. The list shows a part of the results.
# Target: human ether-à-go-go-related gene (hERG) potassium channel (human, UniProt Q12809)
# Assay: primary screen, population patch clamp on CHO cells stably expressing hERG
# 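Note: peak tail current of the secondary pulse compared with the same well before compound.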
# Sequence of human ether-à-go-go-related gene (hERG) potassium channel (Q12809 whole entry, looked up): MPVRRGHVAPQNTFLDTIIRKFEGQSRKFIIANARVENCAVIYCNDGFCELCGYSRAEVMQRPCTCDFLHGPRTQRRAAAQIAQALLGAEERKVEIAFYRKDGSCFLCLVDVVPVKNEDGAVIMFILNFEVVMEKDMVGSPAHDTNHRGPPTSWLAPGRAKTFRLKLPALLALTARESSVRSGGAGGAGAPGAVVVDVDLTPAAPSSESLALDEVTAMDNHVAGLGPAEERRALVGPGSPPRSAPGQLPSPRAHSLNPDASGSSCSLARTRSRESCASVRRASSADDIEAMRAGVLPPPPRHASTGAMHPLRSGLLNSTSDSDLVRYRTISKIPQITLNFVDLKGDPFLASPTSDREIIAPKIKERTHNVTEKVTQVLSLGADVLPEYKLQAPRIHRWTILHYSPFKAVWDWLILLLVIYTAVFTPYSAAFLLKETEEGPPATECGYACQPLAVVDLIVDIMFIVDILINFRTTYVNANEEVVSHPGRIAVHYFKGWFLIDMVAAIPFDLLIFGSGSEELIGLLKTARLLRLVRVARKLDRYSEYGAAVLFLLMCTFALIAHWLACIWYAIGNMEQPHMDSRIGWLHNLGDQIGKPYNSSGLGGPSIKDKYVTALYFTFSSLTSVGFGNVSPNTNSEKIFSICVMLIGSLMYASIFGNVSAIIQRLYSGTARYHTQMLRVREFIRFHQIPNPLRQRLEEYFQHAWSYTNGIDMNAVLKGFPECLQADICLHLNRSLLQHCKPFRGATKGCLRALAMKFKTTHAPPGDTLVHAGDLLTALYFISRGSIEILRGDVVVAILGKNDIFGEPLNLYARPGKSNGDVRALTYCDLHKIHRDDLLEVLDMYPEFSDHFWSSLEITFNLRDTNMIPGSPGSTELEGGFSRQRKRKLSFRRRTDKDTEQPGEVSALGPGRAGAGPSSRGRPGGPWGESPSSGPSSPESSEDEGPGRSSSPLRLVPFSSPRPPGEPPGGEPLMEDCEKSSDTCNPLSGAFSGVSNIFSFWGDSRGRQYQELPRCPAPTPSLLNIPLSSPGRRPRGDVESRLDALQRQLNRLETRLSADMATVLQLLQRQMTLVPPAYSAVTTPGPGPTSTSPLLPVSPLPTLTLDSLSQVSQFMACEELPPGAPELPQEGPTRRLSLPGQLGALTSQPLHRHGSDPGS
row,SMILES,"hERG current change (%, negative = inhibition) at 10uM [%]"
1,O=C(Cc1cccs1)Nc1nc2c(ccc3ccccc32)s1,18
2,CCOCC(=O)Nc1cccc(OC)c1,-7.9
3,O=C1C(=O)N(CCO)C(c2ccccc2[N+](=O)[O-])/C1=C(\O)c1ccccc1 (centres unmarked),14
4,COCCCn1c(SCC(=O)Nc2sc3c(c2C#N)CCCC3)nnc1-c1ccncc1,-49.4
5,Cc1csc(NC(=O)c2ccc3c(c2)OCO3)n1,-0.0676
6,COc1ccccc1CNC(=O)c1cc(-c2ccccc2)nn1CC1CC(c2cccnc2)=NO1 (centres unmarked),-71.2
7,O=S(=O)(Nc1ccccc1)c1ccc(F)cc1,-10.6
8,CC(C)Oc1ccc(CCC(=O)NNC(=O)CCC(=O)O)cc1,14.3
9,CC(C)(C)NC(=O)c1ccc2c(c1)CCO2,4.77
10,COc1ccccc1N1CCN(CC(O)COc2ccc(C)c(C)c2)CC1.Cl (centres unmarked),-55.9
11,CCOc1ccc(NC(=O)CN(C)C(=O)c2ccccc2SCC(=O)N2CCCC2)cc1OCC,21.3
12,COc1ccc(/C=C(\NC(=O)c2ccccc2)C(=O)NCc2cccnc2)cc1,-70.5
13,C/C(=N/Nc1ccnc2cc(Cl)ccc12)c1ccc(N)cc1,-48.5
14,Cc1c(NC(=O)COC(=O)/C=C/c2cccc(Br)c2)c(=O)n(-c2ccccc2)n1C,-15.8
15,CCOC(=O)CN1C(=O)C(O)(CC(=O)c2ccco2)c2ccccc21 (centres unmarked),0.365
16,Cc1cc(OCC(O)CN2CCN(C)CC2)ccc1C(C)C.Cl (centres unmarked),-1.06
17,FC(F)(F)c1ccccc1CN1CCN(Cc2ccccc2)CC1,0.078
18,COc1ccc2cc(C(N)=O)/c(=N\NC(=O)c3ccccc3)oc2c1,-8.42
19,NC(=O)CC(NC(=O)Cc1ccc(Br)cc1)c1ccc(N2CCC(Br)CC2)c([N+](=O)[O-])c1 (centres unmarked),3.39
20,Cc1cccc(/C=N/n2c(C)nnc2C)c1,-0.651
21,CCC(C)C(=O)Nc1ccccc1N1CCN(c2ccc(F)cc2)CC1 (centres unmarked),4.44
22,O=C(NCCCN1CCOCC1)c1cccc(S(=O)(=O)Nc2cc(Cl)ccc2Cl)c1,-14.6
23,CCOc1ccc(S(=O)(=O)c2c(C(=O)c3ccc(C)cc3)cnc3cc4c(cc23)OCCO4)cc1,4.28

row,SMILES,"hERG current change (%, negative = inhibition) at 10uM [%]"
1,CC(C)CCNC(=O)C1CC(c2ccc(C(F)(F)F)cc2)=NO1 (centres unmarked),11.2
2,Cc1cc(C(=O)COc2cccnc2[N+](=O)[O-])c(C)n1Cc1ccco1,18.2
3,C/C(=N\Nc1ccc(C(F)(F)F)cn1)c1ccc(S(=O)(=O)NCc2ccco2)cc1,18.7
4,CN(CC(=O)Nc1ccncc1)S(=O)(=O)c1ccc(Cl)cc1,-5.97
5,CCOC(=O)C1(C)NC(c2cccc(C)c2)C2C(=O)N(c3ccccc3)C(=O)C21 (centres unmarked),-6.22
6,Cc1cccc(N=C(NO)c2nonc2N)c1,31.8
7,C#CCO[C@@H]1C[C@H](n2ccc(NC(=O)c3ccccc3)nc2=O)O[C@@H]1CO,-0.478
8,O=C1CSC(c2ccccn2)N1c1ccccc1 (centres unmarked),-0.577
9,Cc1oc(-c2ccccc2F)nc1CS(=O)CC(=O)NCc1ccccc1 (centres unmarked),-17.5
10,CCOC(=O)Cc1c(C)nc2c(-c3ccccc3)c(C)[nH]n2c1=O,-10.6
11,CC(=O)N1CCN(c2nc(C)nc3sc4c(c23)CCC(C)C4)CC1 (centres unmarked),-19.3
12,CC(C)c1ccc2nc(SCC(=O)NCC3CCCO3)c(C#N)cc2c1 (centres unmarked),1.97
13,CCN(CC)CCn1c(O)c(N=O)c2ccccc21,-11.1
14,CCCCC(=O)Nc1ccc2c3c(cccc13)CC2,0.263
15,Cc1ccc(C(=O)Nc2cccc(-c3ccc(N4CCOCC4)nn3)c2)cc1[N+](=O)[O-],1.45
16,CC(C(=O)O)c1ccc(C(=O)c2ccccc2)s1 (centres unmarked),-3.58
17,CCOC(=O)COc1nc(-c2ccc(C)cc2)cc(-c2ccco2)c1C#N,-5.78
18,COc1cc2ccc(=O)oc2c(O[C@@H]2O[C@H](CO)[C@@H](O)[C@H](O)[C@H]2O)c1O.O,12.5
19,Brc1cc(Br)c2nc3c(cc2c1)CCC3,16.8
20,O=C(COC(=O)[C@@H]1CC(O)CN1S(=O)(=O)c1ccc2c(c1)OCCO2)NCc1ccc(F)cc1 (some centres unmarked),11.8
21,CC1CC(C)CN(C(=O)CSCC(=O)O)C1 (centres unmarked),1.3
22,CCOc1ccccc1C(=O)Nc1nn[nH]n1,12.3
23,COc1cccc(-c2cc(C(=O)N/N=C/c3ccc(OC)c(COC(C)=O)c3)c3ccccc3n2)c1,7.5

row,SMILES,"hERG current change (%, negative = inhibition) at 10uM [%]"
1,O=C(COC(=O)/C=C/c1cc(Br)ccc1F)Nc1ccc2[nH]c(=O)[nH]c2c1,1.53
2,CC(C)CCN(Cc1ccco1)S(=O)(=O)c1ccc(-c2ccc(=O)[nH]n2)s1,-0.664
3,COc1ccccc1-n1nc(C)cc1N,19.8
4,COc1ccc(OC)c(CC(=O)NC(c2ccccc2)c2ccccc2)c1,8.16
5,CC1(C)C/C(=N\O)C(C(O)c2cccc([N+](=O)[O-])c2)C(C)(C)N1 (centres unmarked),17.2
6,Cc1ccc(S(=O)(=O)Nc2cccc(C(=O)NCc3ccc(S(N)(=O)=O)cc3)c2)cc1,21.7
7,N#Cc1ccccc1NC(=O)COC(=O)COc1ccccc1[N+](=O)[O-],21.7
8,O=c1cc(N2CCCCC2)c(-c2ccccc2)n[nH]1,25.1
9,Cc1cccnc1NC(=O)CCCc1c[nH]c2ccccc12,20.5
10,O=c1c2nncn2c2cccnc2n1CCNc1ncc(C(F)(F)F)cc1Cl,-23.4
11,CCOC(=O)c1cnn(Cc2cccc(Cl)c2)c1C,-7.23
12,CN(CCCn1c(=S)[nH]c2ncccc2c1=O)Cc1ccccc1,-12.5
13,Cc1cc(OC(=O)CCNC(=O)OC(C)(C)C)c2c3c(c(=O)oc2c1)CCC3,-13.1
14,Cc1ccc(S(=O)(=O)Cc2ccc(C(=O)N3CCN(c4cccc(C)c4C)CC3)o2)cc1,-7.95
15,Cc1noc(C)c1COc1ccccc1C(=O)N(C)CC(=O)Nc1cccc(F)c1,3.43
16,COc1ccc(N2CCN(c3nc4ccc(C)cn4c(=O)c3C=O)CC2)cc1,-39.4
17,O=C(NCC(=O)N1CCN(S(=O)(=O)/C=C/c2ccccc2)CC1)c1ccc(Cl)cc1,-23.1
18,Cc1ccc(-c2cc(C(=O)Nc3cc(C)on3)c3ccccc3n2)cc1,4.13
19,COc1ccc(C(CCNCc2ccc(N(C)C)cc2)C(C)C)cc1 (centres unmarked),-40.5
20,COc1ccc(NC(=O)C2CCN(c3ncnc4c3nc3n4CCCCC3)CC2)cc1Cl,-0.67
21,COc1ccc(S(=O)(=O)NCc2ccco2)cc1-c1nnc2c3ccccc3c(C)nn12,-50.3
22,COc1ccc(C(=O)Nc2ccc3[nH]ccc3c2)cc1,18.1
23,CC(=O)Oc1cccc(C(=O)Nc2ccc(NC(=O)c3cccs3)cc2)c1,3.25

row,SMILES,"hERG current change (%, negative = inhibition) at 10uM [%]"
1,N#Cc1cn(-c2ccccc2)nc1-c1ccco1,11.2
2,O=C(O)CN1C(=O)/C(=C\c2cccc(OCc3ccc(Cl)cc3Cl)c2)SC1=S,6.27
3,COCCCNC(=O)c1ccc(NS(C)(=O)=O)cc1,-2.85
4,COc1ccc(NC(=O)C2CCCN(C(=O)Nc3cccc(OC)c3)C2)cc1 (centres unmarked),-19.2
5,CCOC(=O)C1CCCCN1Cc1cccc(OC)c1OC (centres unmarked),5.61
6,O=C(CN1CCN(CC(=O)Nc2ccccn2)CC1)Nc1ccccn1,-36
7,CN(c1ccc(C(=O)NCCC2=CCCCC2)cc1)S(C)(=O)=O,4.82
8,O=C(Nc1cccc2nsnc12)c1ccc2c(c1)OCO2,-6.74
9,O=c1c2c([nH]n1-c1ccccc1)CCCC2,19.6
10,Cc1cc(=O)[nH]c(N/N=C2/CCCC/C2=C\c2ccccc2)n1,-19.1
11,COc1ccc(NC(=O)C2CCN(C(=O)C3CC(=O)N(c4ccc(C)cc4)C3)CC2)c(OC)c1 (centres unmarked),-12.7
12,CCOc1cc(C(=O)NC2CCCCCCC2)cc(OCC)c1OCC,1.23
13,CCn1c2c(c3cc(OCC(C)C)ccc31)CCCC2=O,6.13
14,COc1ccc2c(c1)OC(O)(C(F)F)CC2=O (centres unmarked),3.79
15,COc1ccc(CCNC(=O)CC2Nc3ccccc3NC2=O)cc1 (centres unmarked),0.25
16,O=C(NCC1CCCO1)c1cc2ccccc2[nH]1 (centres unmarked),17.6
17,COc1cc(S(=O)(=O)N2CCN(Cc3ccc4c(c3)OCO4)CC2)c(C)cc1C,-6.21
18,COc1ccc(C(=O)Nc2ccc(NC(C)=O)cc2)cc1S(=O)(=O)N1CCCCC1C (centres unmarked),1.47
19,Nc1cc(=O)[nH]n1C1CCCCC1,19.7
20,CCN(CC)CCN1CNC(=S)N(c2ccccc2OC)C1,8.53
